# Measured values reported in PMC4336329 (PLoS ONE, 2015).
# Among all 310,000 compounds or so, about 14,000 (4.5%) showed an effect of 50% or more. The effect is printed as a negative number. The list shows a part of the results.
# Target: human ether-à-go-go-related gene (hERG) potassium channel (human, UniProt Q12809)
# Assay: primary screen, population patch clamp on CHO cells stably expressing hERG
# 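Note: peak tail current of the secondary pulse compared with the same well before compound.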
# Chain of human ether-à-go-go-related gene (hERG) potassium channel (Q12809 whole entry, looked up): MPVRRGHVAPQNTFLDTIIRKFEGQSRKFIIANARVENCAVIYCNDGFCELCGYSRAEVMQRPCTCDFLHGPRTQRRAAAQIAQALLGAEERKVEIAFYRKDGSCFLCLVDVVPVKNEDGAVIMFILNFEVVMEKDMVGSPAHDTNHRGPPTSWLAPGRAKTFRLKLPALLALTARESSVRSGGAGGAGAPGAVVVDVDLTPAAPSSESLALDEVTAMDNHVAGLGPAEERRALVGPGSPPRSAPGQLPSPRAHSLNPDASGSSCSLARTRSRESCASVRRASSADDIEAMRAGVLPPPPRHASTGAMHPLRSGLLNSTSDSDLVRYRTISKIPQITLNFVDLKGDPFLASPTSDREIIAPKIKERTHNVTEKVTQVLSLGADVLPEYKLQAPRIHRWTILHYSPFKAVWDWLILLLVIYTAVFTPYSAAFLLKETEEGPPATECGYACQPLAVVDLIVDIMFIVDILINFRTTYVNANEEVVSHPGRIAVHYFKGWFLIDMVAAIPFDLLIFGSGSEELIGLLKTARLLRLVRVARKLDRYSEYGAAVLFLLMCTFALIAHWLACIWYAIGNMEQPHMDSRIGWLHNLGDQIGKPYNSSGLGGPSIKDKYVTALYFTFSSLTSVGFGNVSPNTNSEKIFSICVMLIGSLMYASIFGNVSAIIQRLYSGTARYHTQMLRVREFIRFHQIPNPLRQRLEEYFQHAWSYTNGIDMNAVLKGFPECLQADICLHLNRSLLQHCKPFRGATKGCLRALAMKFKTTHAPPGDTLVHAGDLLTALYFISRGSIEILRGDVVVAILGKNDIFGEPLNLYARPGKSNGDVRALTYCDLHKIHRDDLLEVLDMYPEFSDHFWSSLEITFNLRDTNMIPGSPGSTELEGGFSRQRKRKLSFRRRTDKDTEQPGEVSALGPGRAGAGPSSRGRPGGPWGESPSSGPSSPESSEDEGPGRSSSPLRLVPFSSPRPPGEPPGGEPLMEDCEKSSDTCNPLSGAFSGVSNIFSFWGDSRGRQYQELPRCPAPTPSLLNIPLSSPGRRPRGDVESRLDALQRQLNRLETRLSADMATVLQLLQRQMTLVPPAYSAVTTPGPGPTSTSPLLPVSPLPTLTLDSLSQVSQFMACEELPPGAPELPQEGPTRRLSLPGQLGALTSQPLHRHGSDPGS
row,Compound,"hERG current change (%, negative = inhibition) at 10uM [%]"
1,Cc1cc(C)c2ccc(N)nc2c1O,-8.87
2,CCCCn1c(N)c(N(CCC(C)C)C(=O)C2CC(=O)N(c3ccc(OC)cc3OC)C2)c(=O)[nH]c1=O (stereo not drawn),6.5
3,COc1ccc(-n2c(C)cc(C(=O)Cn3nnc4ccccc4c3=O)c2C)cc1,-8.12
4,COc1ccc2c(c1)CC/C(=C/c1ccccn1)C2=O,3.19
5,COc1cccc(C2=CC(=O)C[C@H](c3ccc(F)cc3)C2)c1OC,-31.9
6,CC1=C(C#N)C2(O)C(=O)c3ccccc3C2(O)N1 (stereo not drawn),20.3
7,COC(=O)C1=C(C)N=c2s/c(=C/c3cccs3)c(=O)n2C1c1cccs1 (stereo not drawn),-7.35
8,CC(=O)/C=C1/SC(CC(=O)O)C(=O)N1c1ccccc1 (stereo not drawn),13.4
9,CCOC(=O)Cn1cc(/C=N/NC(=O)c2ccc(C#N)cc2F)c2ccccc21,-25.9
10,C=CCn1c(N)cc(=O)nc1SC(C)C(=O)Nc1cccc2ccccc12 (stereo not drawn),16.5
11,COc1ccc(NC(=O)c2ccc(NC(=O)C(C)C)cc2)c([N+](=O)[O-])c1,23.1
12,COCCn1cnc2c1c(=O)n(CC(=O)c1ccc3c(c1)OCCO3)c(=O)n2Cc1ccccc1,-13.7
13,COc1cc(C(c2sc3ncnn3c2O)N2CCN(c3ccccc3F)CC2)cc(OC)c1OC (stereo not drawn),-6.1
14,Cc1cccc(NC(=O)c2cccc3c2C(=O)c2ccccc2-3)c1,25.3
15,O=c1c(-c2ccccc2)coc2cc(O)ccc12,3.41
16,Cc1ccc(NC(=O)OCCN2CCN(Cc3ccccc3)CCC2=O)cc1C,-5.17
17,COc1ccc(-c2nc(-c3ccccn3)no2)cc1,15
18,O=C(NCCN1CCc2ccccc2C1)Nc1ccc(F)cc1,-37.5
19,N#Cc1ccsc1NC(=O)C1CCCN1S(=O)(=O)c1cccs1 (stereo not drawn),9.71
20,CCCS(=O)(=O)N1CCCC(C(=O)N2CCOCC2)C1 (stereo not drawn),5.04
21,CCCCCn1c(NCc2ccco2)nc2ccccc21,-74.8
22,N#Cc1ccc(/C=C/C(=O)c2cccnc2)cc1,-49.4
23,Fc1ccc(/C=N/Nc2nc3ccccc3[nH]2)cc1F,-22.1

row,Compound,"hERG current change (%, negative = inhibition) at 10uM [%]"
1,O=C(COC(=O)c1ccc(S(=O)(=O)N2CCCC2)cc1)Nc1ccc(F)cc1F,9.22
2,Cc1ccc([N+](=O)[O-])c(OCCn2cnc3ccccc32)c1,5.57
3,CCC(CC)C(=O)Nc1cccc(C(=O)NCCc2ccccc2)c1,-7.6
4,Cc1cc(N/N=C(/CCC(=O)[O-])C(=O)[O-])nc2ccccc12.[K+],25.4
5,C(=N\n1cnnc1)/c1cccc(OCCOc2ccccc2)c1,-3.91
6,O=C1NC[C@@H](Cc2cccc3ccccc23)N(CC2CCCCC2)C1=O,-5.73
7,CN(C)c1c([N+](=O)[O-])ncn1C,-3.88
8,Fc1ccc2nc(C3CCCCN3Cc3nc(CC4CC4)no3)[nH]c2c1 (stereo not drawn),0.821
9,CCc1ccc(OCCCC(=O)Nc2ccc(S(=O)(=O)Nc3cc(C)nc(C)n3)cc2)cc1,21.3
10,Cc1ccc2cc(CN(Cc3nnnn3Cc3ccco3)CC3CCCO3)c(=O)[nH]c2c1C (stereo not drawn),-22.8
11,COc1cccc(C2NC(=O)NC(O)(C(F)(F)F)C2C(=O)c2cccnc2)c1OC (stereo not drawn),-5.78
12,CCOC(=O)c1sc(N)nc1C(C)C,-2.86
13,O=[N+]([O-])c1cc(/C=N/N/C(=N/c2ccccn2)c2ccccn2)ccc1O,7.8
14,CCOC(=O)C1=C(C)NC(C)=C(C(=O)OCC)C1C(=O)O,-7.57
15,CCCCN(C(=O)Cn1nnc2ccccc21)C(C(=O)NCCOC)c1cccs1 (stereo not drawn),20.4
16,Cc1nc2ccccc2n1C1CC(=O)N(Cc2ccccc2)C1=O (stereo not drawn),13.2
17,CCCCc1nc2cc(C(=O)NCCc3c(C)n[nH]c3C)ccc2o1,6.23
18,CNC(=S)N1CCc2sccc2C1C (stereo not drawn),-3.77
19,O=c1[nH]c(O)c(N=Nc2cc(C(F)(F)F)ccc2Cl)c(=O)[nH]1,20.6
20,O=C(O)Cc1ccc(NC(=O)c2ccc(Cl)c(Cl)c2)cc1,18.4
21,CCC(=O)N1CCc2cc(Br)cc(S(=O)(=O)N3CCC(C(=O)NCCCOC(C)C)CC3)c21,-12.2
22,Cc1cccn2c(=O)c(C=O)c(N3CCC4(CC3)OCCO4)nc12,-1.14
23,Cc1ccc(C(C)C)c(OCc2nnc(SCC(=O)Nc3nccs3)n2C)c1,6.67

row,Compound,"hERG current change (%, negative = inhibition) at 10uM [%]"
1,CC(=O)N1N=C(c2ccco2)CC1c1ccc(C)cc1 (stereo not drawn),-4.3
2,COC(=O)c1cc(C(=O)Nc2nc3ccccc3[nH]2)cc([N+](=O)[O-])c1,15.7
3,Cc1ccc(Cl)c(OCC(=O)N(C)CC(=O)Nc2ccc(N3CCOCC3)cc2)c1,9.14
4,CC(C)(C)Nc1c(-c2cccs2)nc2ccccn12,5.42
5,CCN(CC)c1ccc(C(=O)Nc2ccccc2)cc1[N+](=O)[O-],-5.94
6,c1c(CC2CCCC2)nnn1C[C@H]1CC[C@@H]([C@@H]2CC[C@H](Cn3cc(CC4CCCC4)nn3)O2)O1,-57.6
7,CC1CCN(C(=O)CC(NC(=O)c2ccccc2Cl)c2ccccc2)CC1 (stereo not drawn),-15.7
8,Cc1ccc(C(=O)NNC(=O)C2CC2)cc1Br,14.3
9,O=C(NCCc1ccccn1)c1ccc(S(=O)(=O)N2CCCCCC2)cc1,-22.6
10,CCOC(=O)c1cnn(Cc2ccc(C)cc2)c1N,10.3
11,CC(C)c1ccc(C(O)c2cnc(C(C)C)n2C)cc1 (stereo not drawn),-27.5
12,O=C(CSc1nnc(CNc2ccccc2)o1)N1CCCc2ccccc21,-23.8
13,COc1cccc(OC)c1C(=O)Nc1cccc(NC(=O)c2cccs2)c1,8.11
14,CCCn1nnc(NC(=O)c2ccc(Br)cc2)n1,-8.37
15,CC1CN(C(=O)Nc2ccc3c(c2)OCCO3)CC(C)O1 (stereo not drawn),22.5
16,O=C1c2ccncc2C(=O)N1CO,19.7
17,Cc1cccc2cc(CN(Cc3cccs3)Cc3nnnn3Cc3ccccc3)c(=O)[nH]c12,-9.39
18,O=S(=O)(Nc1ccc(-c2cn3c(n2)SCC3)cc1)c1ccccc1F,5.86
19,COc1ccc(N(CC(=O)NCc2ccc3c(c2)OCO3)S(C)(=O)=O)cc1OC,1.12
20,Br.O=C(O)c1ccccc1CSC1=NCCS1,28.3
21,Cn1cc(CNCc2ccccc2OCC(O)CN2CCc3ccccc3C2)cn1 (stereo not drawn),-0.11
22,Cc1ccc2c(=O)[nH]c(Cc3ccccc3C(=O)O)nc2c1,26.9
23,CCN(Cc1nc(-c2cccc(C)c2)no1)C(=O)c1ccc2c(c1)OCO2,-25.4

row,Compound,"hERG current change (%, negative = inhibition) at 10uM [%]"
1,O=Cc1c(N2CCSCC2)nc2ccccn2c1=O,-4.22
2,Cc1ccc(/C=N/NC(=O)C(C)Oc2cccc3ccccc23)o1 (stereo not drawn),2.95
3,CCC(=O)Nc1ccc(-c2nn3c(C)nnc3s2)cc1C,-7.57
4,O=S(=O)(c1ccc(Cl)cc1)N1CCNCC1,-4.99
5,Cc1cccc(NC(=O)CSc2nnc(-c3ccc(S(=O)(=O)N4CCOCC4)cc3)n2C)c1,-7.42
6,Cn1cc([N+](=O)[O-])c(C(=O)Nc2ccc3c(C(F)(F)F)cc(=O)oc3c2)n1,15.6
7,CCc1ccc(N2CC(C(=O)OCC(=O)NC3CCS(=O)(=O)C3)CC2=O)cc1 (stereo not drawn),16.2
8,N#CC1(c2ccccc2)CCC(=O)N1c1ccccc1 (stereo not drawn),12.4
9,COc1ccc(C(=O)Nc2ccc(NC(=O)c3cnccn3)cn2)cc1,1.88
10,COc1cnc(SC)nc1Nc1ccc(C#N)cc1,-66.8
11,CCc1noc(C)c1C(=O)N1CC(C)OC(C)C1 (stereo not drawn),10.9
12,CC(C)(C)C1CCC(OC(=O)c2cncc(Br)c2)CC1 (stereo not drawn),18.2
13,CC(C)c1ccc(CN(C(=O)C2COc3ccccc3O2)C2CCS(=O)(=O)C2)cc1 (stereo not drawn),-11.3
14,CCOc1ccc(OCCOc2ncnc3ccccc23)cc1,1.56
15,COc1ccc(OC)c(NC(=O)COC(=O)c2ccc(S(=O)(=O)N3CCOCC3)cc2)c1,-15.3
16,Cc1cc(=O)oc2cc(OCC(=O)Nc3ccccc3C(N)=O)c(Cl)cc12,18.5
17,S=C(NCc1ccccc1)NCc1ccc2c(c1)OCO2,-33.1
18,Cc1nc(-c2ccc(F)cc2)c(CC(=O)N(C)CC(=O)Nc2ccccc2Br)s1,6.65
19,COc1ccccc1C(=O)N1CCN(Cc2cccnc2)CC1.O=C(O)C(=O)O,19.3
20,Cc1cc(C(=O)N2CCCC(C(=O)c3ccc(Cl)cc3C)C2)no1 (stereo not drawn),-28.6
21,O=C(CCCc1ccccc1)c1ccc2c(c1)OCCO2,-5.25
